Data reported in PMC4336329 (PLoS ONE, 2015).
Screen size: about 310,000 compounds; about 2,200 (0.71%) showed an effect of 50% or more. The effect is printed as a negative number. Some of the results follow.

biological target: human ether-à-go-go-related gene (hERG) potassium channel (human, UniProt Q12809); assay: primary screen, population patch clamp on CHO cells stably expressing hERG
Sequence (Q12809 whole entry, looked up): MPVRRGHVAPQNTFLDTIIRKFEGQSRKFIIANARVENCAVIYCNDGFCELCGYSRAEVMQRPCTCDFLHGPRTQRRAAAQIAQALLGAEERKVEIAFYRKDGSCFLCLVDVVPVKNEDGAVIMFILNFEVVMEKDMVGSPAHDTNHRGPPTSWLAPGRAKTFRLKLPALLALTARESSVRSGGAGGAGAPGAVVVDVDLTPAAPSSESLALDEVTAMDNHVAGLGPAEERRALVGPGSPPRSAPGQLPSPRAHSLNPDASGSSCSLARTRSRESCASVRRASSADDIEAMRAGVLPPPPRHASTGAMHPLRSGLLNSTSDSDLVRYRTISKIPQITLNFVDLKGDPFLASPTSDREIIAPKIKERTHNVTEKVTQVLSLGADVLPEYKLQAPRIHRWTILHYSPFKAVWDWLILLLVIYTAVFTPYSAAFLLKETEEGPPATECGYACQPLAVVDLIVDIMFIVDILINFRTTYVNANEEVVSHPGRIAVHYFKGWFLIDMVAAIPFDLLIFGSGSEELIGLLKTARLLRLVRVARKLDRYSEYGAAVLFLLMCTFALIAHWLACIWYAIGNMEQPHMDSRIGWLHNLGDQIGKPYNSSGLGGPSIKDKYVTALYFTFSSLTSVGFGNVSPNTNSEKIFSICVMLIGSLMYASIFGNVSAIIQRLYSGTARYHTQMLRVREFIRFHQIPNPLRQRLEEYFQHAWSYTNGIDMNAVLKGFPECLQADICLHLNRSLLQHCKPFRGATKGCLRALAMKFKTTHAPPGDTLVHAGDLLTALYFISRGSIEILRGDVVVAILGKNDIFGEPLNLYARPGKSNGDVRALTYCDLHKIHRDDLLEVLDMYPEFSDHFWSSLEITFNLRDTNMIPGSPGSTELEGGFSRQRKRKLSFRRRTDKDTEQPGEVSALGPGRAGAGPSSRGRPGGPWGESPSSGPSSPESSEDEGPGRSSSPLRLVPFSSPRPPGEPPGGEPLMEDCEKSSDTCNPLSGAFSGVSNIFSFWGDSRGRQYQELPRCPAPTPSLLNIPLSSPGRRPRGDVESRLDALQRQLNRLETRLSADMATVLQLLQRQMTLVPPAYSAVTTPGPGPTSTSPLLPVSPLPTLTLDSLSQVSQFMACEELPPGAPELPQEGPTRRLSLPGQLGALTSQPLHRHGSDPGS

SMILES | hERG current change (%, negative = inhibition) at 1uM [%]
O=C(Cc1cccc2ccccc12)NN1C(=O)CSC1=S | 6.4
Cn1cnc2cc(NCc3ccccc3Cl)ccc21 | 6.75
CCN(CC(=O)N1CCN(c2ccccc2)CC1)S(=O)(=O)c1ccc(C)cc1 | 11.5
CCCc1ccc(S(=O)(=O)Nc2ccc(C)c(NS(C)(=O)=O)c2)cc1 | -4.59
Cc1cc(Nc2ccccc2)n(CCC#N)n1 | 8.23
CC(Oc1ccc(Cl)cc1Cl)C(=O)N(C)c1ccccc1 (centres unmarked) | 1.7
CCCCn1c(SCC(=O)Nc2nnc(C(C)C)s2)nc2c1c(=O)n(C)c(=O)n2C | 4.78
CN(C)c1nc2c(c(=O)[nH]c(=O)n2C)n1Cc1ccccc1Br | 8.32
COc1ccc(-c2cc(C(=O)c3c(N)n(C)c(=O)n(C)c3=O)c3ccccc3n2)cc1OC | 9.69
COc1ccc(Cl)cc1NC(=O)C/C(C)=N/NC(=O)CC#N | 7.26
CCOC(=O)C1=C(c2ccccc2)NC(=S)NC1c1cccc([N+](=O)[O-])c1 (centres unmarked) | 8.14
Cn1c(=O)c2c(O)c(Cc3ccccc3)c(=O)n(C)c2n(C)c1=O | 15.8
Cc1cc(C)cc(NC(=O)C(c2ccccc2)N2CCN(CC(=O)NC3CC3)CC2)c1 (centres unmarked) | 1.32
COc1ccc(NC(=O)NCc2cccnc2)cc1 | 6.55
CN(CC(=O)Nc1ccccc1C(F)(F)F)C(=O)Cn1c(=O)oc2ccccc21 | 7.4
Cc1ccc(C)c(SCC(=O)NCc2ccco2)c1 | 6.59
CCN(CC)C(=O)NC(c1ccc(C)c(F)c1)C(Cl)(Cl)Cl (centres unmarked) | 11.6
COc1ccccc1C(CCN(Cc1ccccc1)C(C)=O)c1ccco1 (centres unmarked) | 6.77
COc1cccc(CN2CCNC(=O)C2CC(=O)N(C)CC2CCOCC2)c1 (centres unmarked) | 14.8
Cc1cc(NC(=O)CCC(=O)N(CC(=O)NC2CCCC2)c2ccc(C)c(F)c2)no1 | 16
COc1ccc(CCNC(=O)c2cccs2)cc1OC | 30.7
CC(c1ccccn1)N(C)C(=O)c1ccc2nc(Cc3ccccc3F)oc2c1 (centres unmarked) | 14.8
COc1cccc(OC)c1C(=O)Nc1cc(C)on1 | 10.6

SMILES | hERG current change (%, negative = inhibition) at 1uM [%]
Cc1nn(-c2ccc(F)cc2)c(Cl)c1C(=O)OC(C)C(=O)N(C)C1CCCCC1 (centres unmarked) | 0.754
COC(=O)c1ccc(Sc2ccc(Cl)cc2)c(N)c1 | 3.06
CC1=CC(C)(C)N(C(=O)CSc2nnc(-c3ccccc3)o2)c2ccc(C)cc21 | 10.9
Fc1ccc(CN2CCN(c3ncnc4scc(-c5ccccc5)c34)CC2)cc1 | -5.01
CCn1c(SCC(=O)Nc2cc(Cl)ccc2OC)nnc1C1CC1 | 12.8
O=C1CC(c2ccco2)CC(O)=C1C=NCCN1CCN(C(=S)Nc2ccccc2)CC1 (centres unmarked) | -0.843
O=C(Oc1ccc(Cl)cc1)c1ccc(COC(=O)c2cnccn2)cc1 | 13.7
CCC(=O)N1c2ccccc2-c2nnc(SC)nc2OC1c1ccc(N(C)C)cc1 (centres unmarked) | 10.9
COc1ccc(CCNC(=O)c2cc3c(=O)n4ccccc4nc3n(CCCN3CCOCC3)c2=N)cc1OC | -39.4
CCC(=O)Nc1ccc(C2=Nn3c(nnc3C(C)C)SC2)cc1.Cl | 17.9
COc1ccc(C2C(C#N)=C(N)SC(N)=C2C#N)cc1OC | 10.2
CCCCCCCNC(=O)C1(CC2CC(c3cccc(Br)c3)=NO2)CCN(C(=O)Cc2ccc(F)cc2)CC1 (centres unmarked) | 5.8
CCCN(CC(=O)c1cc(C)n(C)c1C)S(=O)(=O)c1cccc(C(F)(F)F)c1 | 1.52
O=C(CN1CCCC1)NC(=O)NC1CCCC1 | 5.7
CCN(CC)C(=O)c1cc(S(=O)(=O)N2CCCCC2)c[nH]1 | 15.2
CC(C)OCCCN(CC(O)c1ccccc1)CC(O)c1ccccc1.O=C(O)C(=O)O (centres unmarked) | -0.211
CN(c1ccc(C(=O)O)cc1)S(=O)(=O)c1ccc(Cl)cc1 | 8.08
COC(=O)c1ccccc1NC(=O)Nc1ccc2c(c1)OCO2 | 7.67
Cc1ccc(N2CC(C(=O)NCc3cccs3)CC2=O)cc1 (centres unmarked) | 1.16
COC(=O)C1=C(C(=O)OC)[C@@H]2N(C)c3ccccc3[C@@]23C[C@@H](C(=O)OC)N(C(=O)COCc2ccccc2)C3=N1 | 8.35
Cc1ccc(NC(=O)c2ccccc2-c2ccc(C(F)(F)F)cc2)cc1S(=O)(=O)N1CCOCC1 | 8.12
O=C(Nc1cccc(S(=O)(=O)N2CCOCC2)c1)c1cnn2c(C(F)F)cc(-c3ccccc3)nc12 | 16.4
c1ccc(-c2nnc(N3CCN(c4ccccc4)CC3)nc2-c2ccccc2)cc1 | 7.67

SMILES | hERG current change (%, negative = inhibition) at 1uM [%]
O=C(Nc1ccc2c(c1)OCO2)c1cc(-c2ccccc2Cl)on1 | 17.3
CCN(CC)P(=O)(c1nccn1C)N(CC)CC | 14.2
CN1CCN(c2nc(C(N)=O)cc(-c3ccccc3)n2)CC1 | -18.4
N#Cc1nc(-c2ccc(OCc3ccccc3)cc2)oc1N1CCOCC1 | 10.4
Fc1ccccc1CNC(=S)Nc1ccc(Cl)cc1 | 22
O=C(Cn1cnc([N+](=O)[O-])c1)NC1CCCC1 | 11.6
CCN(Cc1cc2ccccc2[nH]c1=O)C(=O)c1cccc([N+](=O)[O-])c1 | 8.31
COc1ccccc1N1CCN(C2CCCN(C(=O)CN3CCCC3=O)C2)CC1 (centres unmarked) | 14.4
Cc1cc2nccc(-c3ccc(Cl)cc3Cl)n2n1 | 4.9
Cc1cc(OCC(=O)NCc2ccccn2)c2c(C)c(C)c(=O)oc2c1 | 8.77
S=C(NCC(c1cccnc1)N1CCOCC1)NC1CCCCC1 (centres unmarked) | 5.43
CC1(C)CC(=O)C(N=Nc2cccc([N+](=O)[O-])c2)=C(O)C1 | 7.71
CCOC(=O)c1sc(NC(=O)CSc2nnnn2-c2ccc(C)cc2C)nc1C | 17
CN1CCCc2cc3c(C(F)(F)F)cc(=O)oc3nc21 | 14.3
CC1(C)Cc2c(c(-c3ccco3)nc3sc4c(NCCCO)ncnc4c23)CO1 | 12.3
COc1ccc(OC)c(NS(=O)(=O)c2ccc(NC(=O)c3ccc(NS(C)(=O)=O)cc3)cc2)c1 | 13
C[C@]12N[C@H](Cc3ccccc31)c1ccccc12.O=C(O)/C=C\C(=O)O | 1.39
O=C(COc1ccccc1Cl)Nc1ccc(NC(=O)c2ccco2)cc1 | 7.73
Cc1ccc(N2CCN(Cc3ccccc3)CC2=O)c(C)c1.O=C(O)C(=O)O | 8
CCOc1ccc(NC(=O)c2ccc(CN3CCc4ccccc4C3)cc2)cc1 | 10.2
NS(=O)(=O)c1cc(C(=O)OC2CCOC2=O)ccc1Cl (centres unmarked) | 14
COc1ccc(NC(=O)CSc2ncn(-c3ccccc3)n2)cc1Cl | -8.44
CC1CCCC(C)N1C(=O)c1ccc(CS(=O)(=O)c2ccccc2)cc1 (centres unmarked) | 5.12

SMILES | hERG current change (%, negative = inhibition) at 1uM [%]
Cc1cccc(C(=O)N/C(=C/c2ccco2)C(=O)N2CCCCCC2)c1 | 18.3
CN(C)C1=C(C#N)C(c2ccccc2)=NP(N(C)C)(N(C)C)=N1 | 3.39
OC(CC#CCN1CCCC1)(c1ccccc1)c1ccccc1 | 9.61
CCOC(=O)C(=O)/C(C#N)=C/Nc1ccc(F)cc1 | 13.9
O=C(N/N=C/C(Br)=C/c1ccccc1)C1CC1 | 18.9
CC(=O)Nc1cc2c(=O)n(Cc3ccccc3)c(C)nc2cc1N1CCOCC1 | 13.6
COc1cc(OC)c2ccc(=O)oc2c1C(CCN1CCCC1)c1ccc2c(c1)OCO2 (centres unmarked) | -7.33
COC(=O)Cn1cc(C=C2C(=O)N(C)C(=O)N(C)C2=O)c2ccccc21 | 15.1
CCOCCCN(C(=O)Cn1nnc(-c2ccc(C)o2)n1)C(C(=O)NC1CCCC1)c1ccco1 (centres unmarked) | 9.93
O=S1CC/C(=N\O)c2ccccc21 (centres unmarked) | 8.68
CCOC(=O)C(Sc1nn(C)c(=S)s1)C(C)=O (centres unmarked) | 3.67
COCCC(=O)NNS(=O)(=O)c1ccc(Cl)cc1 | 15.9
O=C1c2ccc(Oc3ccc([N+](=O)[O-])cc3)cc2C(=O)N1CCCO | -16.4
Cc1ccccc1NC(=O)C(C#N)Cc1cccnc1 (centres unmarked) | 2.57
Cc1ccc(NC(=O)c2snnc2C)cc1Cl | 6.62
C/C(=N/NC(=O)COc1cc(C)ccc1C(C)C)C(=O)O | 11.2
CC(C)NC(=S)NCc1cccs1 | 5.54
CCCCOC(=O)C1=C(N)OC2=C(C(=O)CC(C)(C)C2)[C@]12C(=O)N(C)c1ccccc12 | 18.3
COc1ccc2c(c1OC)C(=O)N(c1ccc(C)cc1)C2 | 14.3
Cc1ccsc1C(=O)OCC(=O)NCc1ccc(Cl)cc1 | 14
